Data: the supplement of paper PMC11417369
± gives the standard deviation of the averaged measurements. The list shows a part of the results.

system: PfAP2-I AP2 domain 3 (GST-tagged); test: gcPBM binding intensity (ln(normalized median fluorescence intensity)); higher = stronger DNA binding
Outline: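 After 1 h on an Agilent 4 × 180k array of primer-extended double-stranded 36-bp intergenic genomic probes and negative controls, bound GST-tagged P. falciparum DNA-binding domains were detected with Alexa488 anti-GST antibody and scanned at 488 nm. The domains had been expressed in E. coli, and binding took place in 1× PBS with 1% milk, 0.2 mg/ml BSA, 0.5% salmon testes DNA and 0.03% Triton X-100. Binding intensity is the highest Masliner-normalised natural-log median intensity across replicate spots of either probe orientation.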

Row | Sequence | gcPBM binding intensity (ln)
1 | ACTCTTAAAATGTATTGTACATAATTTTTACAAGGG [XGTACX_site6611] | 7.95 ± 0.59
2 | AGGTAGTTCTGTATCACACACATATATATATATATA [CACACA_site2214] | 9.3 ± 0.71
3 | GGAGAATAGTGGAAAACACACACGTTTGAGATATGG [CACACA_site1168] | 7.92 ± 0.91
4 | CAAAAACGGAAGTGGTGTACCGATATTATATAAACA [XGTACX_site4962] | 7.8 ± 0.73
5 | TTTTTTTTTTTTACCTGTACATGTCAGCAAACTTTT [XGTACX_site1171] | 8.18 ± 0.64
6 | AACATTATAAGACACACACACACATATATATATATA [CACACA_site8259] | 9.16 ± 0.28
7 | TATAAAACCCTACTGTTTCTTCTTTATTGATATATT [TGCATGCA_negctrl_site285] | 7.54 ± 0.57
8 | GAAAGAATAAAATAAACATGCAAATAAAACATAAAA [TGCATGCA_site471] | 8.19 ± 0.59
9 | AAAGTTTTTATACATACACACCTATAAATTAAGTGC [CACACA_site7198] | 7.75 ± 0.57
10 | AATTGTAAATTGGGCACTTATAAAAATGAACAAATA [CACACA_negctrl_site1583] | 8.2 ± 0.4
11 | TCATAAAGAACAAAGTGTACCTATATATTACATACA [XGTACX_site7595] | 7.63 ± 0.55
12 | TACTATCTATACAATACACACAAAAAAAAAAAAATA [CACACA_site3981] | 7.7 ± 0.21
13 | TTATTATCCTATATTTCTTTTCCTTCTTCAAAATTA [CACACA_negctrl_site1314] | 7.65 ± 0.64
14 | TAAATACACTGTAGCGCACACGGCCAAAAAAAAAAA [CACACA_site1818] | 9.98 ± 0.41
15 | TAATATCATTTATATTGTACTATAACAAAATCTATA [XGTACX_site7700] | 7.53 ± 0.38
16 | TATGTCAATTTTCATACATGCGCATAATCTTTATTT [TGCATGCA_site807] | 7.91 ± 0.78
17 | ATAAATAAGATACGTACACACATATACAAAATATAC [CACACA_site3661] | 8.14 ± 0.26
18 | TAAATATATGCATATACACACAACAAAAAAATATAT [CACACA_site2341] | 8.28 ± 0.68
19 | TCTCAGTAAATTAAATGTACATAAGGGAGGAACTAT [XGTACX_site8045] | 8.14 ± 0.51
20 | TTGTGGATTTTGTGCGCACACACATGCAAAAAGAAA [CACACA_site1147] | 10.76 ± 0.071
21 | CACAGACATATATATACACACTTTTATTTAAATAAC [CACACA_site4962] | 8.12 ± 0.47
22 | AAAAAAAAAATGTGCACACGCGTACACCCAAAAAAA [CACACA_site5149] | 9.58 ± 0.27

Row | Sequence | gcPBM binding intensity (ln)
23 | TTTTTGTATCCTTCTTCTTTTTCCAGACTACATTAT [XGTACX_negctrl_site216] | 8.05 ± 0.8
24 | TATAAAAATAATATTACACACATGTAAAATGGCTGT [CACACA_site5755] | 7.62 ± 0.72
25 | GTATATATATATATATGTACATATATGTAGATATAT [XGTACX_site5431] | 7.88 ± 0.47
26 | ATATGTACGCAAGGTGCACACTGGTGCATTAAAAAA [CACACA_site1801] | 12.1 ± 0.21
27 | TACATATGGCACATATGTACACACGTATAGATAATA [XGTACX_site4123] | 9.08 ± 0.41
28 | ATGAATATAAAATATACACACTTATATATCGAATGA [CACACA_site6240] | 7.32 ± 0.58
29 | TTTTATTTTTTCTCACGTACAAATATATAATTTTTT [XGTACX_site6952] | 7.96 ± 0.56
30 | AATATATCCTATTCGAACAAAAATACATGCACATAT [CACACA_negctrl_site1058] | 8.86 ± 0.37
31 | TATCATTATGTAGAAACACACATAAGCTTCGGTTCA [CACACA_site2766] | 7.42 ± 0.59
32 | GGGGAAAAAAAAAAAGGAAAAAGAAAAAAAAAAAAA [GTGCAC_negctrl_site489] | 8.04 ± 1
33 | ATAAAATTTATATAAGCACACAAATATATATTTATA [CACACA_site9083] | 8.12 ± 0.23
34 | TTATGGTTATACATATGTACATATATATATATATAT [XGTACX_site1494] | 9.22 ± 0.5
35 | AATTGCATAATATATTCACACATTTTTAAGTGATAC [CACACA_site5679] | 7.92 ± 0.47
36 | GTAAAGGCTATATATGTGCACATTTTTTTTTTTTTT [GTGCAC_site9925] | 9.54 ± 0.73
37 | ATATTATTTTAAAAAAGTACATTTTTAAGAATTCTT [XGTACX_site6630] | 7.86 ± 0.47
38 | AACATATAAATAAACTGTACATATATATATATATAT [XGTACX_site1056] | 9.45 ± 0.75
39 | AATATTACGTGTTTGGTATTTTTCGATGTTGGCAGG [XGTACX_negctrl_site59] | 7.8 ± 0.5
40 | TAAATAAATAAAAAAACACACATATAAATATAAATA [CACACA_site7815] | 7.36 ± 0.64
41 | TGTTTCCTATTTTGTATGCACTTTTTGTCATAATTA [GTGCAC_site9921] | 10.1 ± 0.21
42 | TATACGGACTCTAAGTGTACTTAAAATAATTCAAAC [XGTACX_site3606] | 7.75 ± 0.53
43 | TATGTGTGACAAAATTGTACGGTCTCTTTATTTTGT [XGTACX_site2679] | 7.72 ± 0.54
44 | TATTATATAATAAAAATTATTATTATTTGTATAAAT [CACACA_negctrl_site195] | 7.21 ± 0.42

Row | Sequence | gcPBM binding intensity (ln)
45 | TATATTGCCCTTCACACACACACATATATATATATA [CACACA_site2492] | 9.55 ± 0.54
46 | TAAAAATGTTGACACACACACATAAATATATTTTAT [CACACA_site7227] | 7.92 ± 0.45
47 | ATTTTTATACCTAAGTGTACATGATGTTTTCTTTTT [XGTACX_site973] | 7.95 ± 0.73
48 | CATTTTTAAAAAAATTGTACAAAACATATATGTGTA [XGTACX_site3396] | 7.71 ± 0.32
49 | TTCCTTTTGAACTCTCGTACGCGTAGGTGTTATTAT [XGTACX_site6264] | 7.89 ± 0.49
50 | TATTAAAAGTAAAAAACACACATGGATATATACATA [CACACA_site3959] | 7.67 ± 0.64
51 | TTACTATATAATATGTGTACACAACATATAATATAT [XGTACX_site1383] | 8.07 ± 0.41
52 | GTTGTGTAATTCGTAACACACATAAAATATAAATAA [CACACA_site7799] | 7.72 ± 0.59
53 | AAAAAAAAAAAAAAAAAAAAAAAAATATATATATAT [CACACA_negctrl_site436] | 9.67 ± 0.13
54 | TTTTTTTTTTGATGTTGTACTTATATACTATATAAT [XGTACX_site2778] | 7.92 ± 0.45
55 | ATATATATATATTGCACACATATAAATATATATATT [CACACA_site807] | 10.4 ± 0.42
56 | CAACCTTTTTTGTTGGTGCATAATTTTTTTTTCTTT | 10.9 ± 0.52
57 | AATATATAGCTAAAAACACACAAATATATACTCATA [CACACA_site5904] | 7.54 ± 0.48
58 | TTTATAAAATTTATTGCACACAATTATTTTATAATT [CACACA_site2489] | 9.89 ± 0.49
59 | ATACATTTTTTTTTCACACATATATATATATTTAAT [CACACA_site5995] | 8.38 ± 0.6
60 | CTCACGTAGCTTGATGCATGCAAACTTGAGTAAAAG [TGCATGCA_site409] | 7.78 ± 0.81
61 | CATATACTCGGACACACACACACACCGACAAAAAAA [CACACA_site4433] | 8.25 ± 0.28
62 | TATCATAAAATATGTAGTACGTATATATATAAAAAT [XGTACX_site5455] | 7.96 ± 0.5
63 | TTTATAGTTTTTAATAGTACACATATTTTTAAGTAT [XGTACX_site5498] | 7.89 ± 0.2
64 | TTTTGTGGAGGATGGTGTACGGTATTGTATTATTAC [XGTACX_site1942] | 8.17 ± 0.41
65 | TAAACAGACATACATACACACATACATACAGACATA [CACACA_site6997] | 7.74 ± 0.26
66 | ATAGTTTTATATAAATGTACAAATGATTTCAAATAG [XGTACX_site8236] | 7.89 ± 0.56

Row | Sequence | gcPBM binding intensity (ln)
67 | AACATGTATATATTATGTACATATGTTAAAATGATA [XGTACX_site6217] | 7.95 ± 0.4
68 | TAGCGGCGGTATCATGCACACGTATATATTGTAACA [CACACA_site8453] | 8.41 ± 0.54
69 | GAGTTAATTTTTTCGTGTACTTGAAAATATTTTTTT [XGTACX_site6392] | 7.96 ± 0.49
70 | TTACCTTTTTCTAATGGTACACATAAAATATCATTT [XGTACX_site6825] | 7.79 ± 0.36
71 | TTTTCTTACACGAATTTTAAATTCAATATTAAACAT [CACACA_negctrl_site286] | 8.03 ± 0.44
72 | GTGGAAATATAACACATTTTTTTTAATAATTATATT [TGCATGCA_negctrl_site522] | 7.76 ± 0.52
73 | TTAGCAACTATTACTACACACATTTGTATATAACTT [CACACA_site6850] | 7.96 ± 0.68
74 | TAAATTAATACCTATGCACACATTTTTTTTTTTAAA [CACACA_site1238] | 8.32 ± 0.47
75 | TTTATTATAATATGTTGTACAAGACGTTTCAGTATA [XGTACX_site4486] | 7.99 ± 0.23
76 | AAATTATCTTAATAGGATGTTCAAGGAGAAAGATGA [CACACA_negctrl_site1032] | 7.72 ± 0.61
77 | CTTAAATTTTTAAATACACACATACACCCATACACA [CACACA_site4461] | 8.53 ± 0.22
78 | TTTTTTTTAAATATCACACACATATAATATATTCTA [CACACA_site3668] | 7.58 ± 0.54
79 | AAACCCTATTCAATGCAATAATTTTATAATTTTTTT [TGCATGCA_negctrl_site434] | 7.78 ± 0.47
80 | GCTTCATTTTAAACTTGTACTTATTTTTTGGTAAAT [XGTACX_site8879] | 8.28 ± 0.42
81 | TAGTTACTTCTTATATAAAATATGTATATAAAAATA [GTGCAC_negctrl_site190] | 7.57 ± 0.19
82 | TCTCTCATTTATTTTTGTACTTAATCCAGCACGTTT [XGTACX_site1369] | 8.34 ± 0.68
83 | ACATATTAATTATAAAGTACATATATATATATATAT [XGTACX_site4540] | 9.45 ± 0.6
84 | TTGTTTGTTGTAACGTGTACAGATAAAAATAAAGGG [XGTACX_site375] | 8.62 ± 0.39
85 | TTCATATTATAGTGCACACAAAAATATATATATGGT [CACACA_site2855] | 11.3 ± 0.43
86 | TAATATCAATATAAAGTACACACTATAGTATGTATT [CACACA_site2280] | 7.7 ± 0.26
87 | TATATATATATATATATACACACGTATATATATACA [CACACA_site4155] | 9.54 ± 0.77
88 | ATATCTTTGCAAAGATGTACTTGTAAAAATATATGA [XGTACX_site768] | 8.09 ± 0.45
